Data taken from the BET-seq Pho4 binding data (Le et al. 2018).
The list shows a part of the results. These are noisy estimates, calculated here from bound and input reads.

Biological target: T1, Pho4 (S. cerevisiae) (UniProt P07270)
T1 sequence: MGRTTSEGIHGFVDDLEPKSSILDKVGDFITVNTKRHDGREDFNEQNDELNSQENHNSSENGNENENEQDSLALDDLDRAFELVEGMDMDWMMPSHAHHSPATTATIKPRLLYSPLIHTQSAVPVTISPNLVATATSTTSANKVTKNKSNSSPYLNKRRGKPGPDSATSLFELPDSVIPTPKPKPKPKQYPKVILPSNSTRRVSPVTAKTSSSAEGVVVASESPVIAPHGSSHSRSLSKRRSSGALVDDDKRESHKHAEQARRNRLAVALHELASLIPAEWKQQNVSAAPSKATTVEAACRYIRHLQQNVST
Assay: relative binding free energy (BET-seq); higher = weaker binding
Details: reference: library average

| Sequence | relative binding free energy [kcal/mol] |
| --- | --- |
| ATGGTCACGTGTCGAT | 0.14 |
| ATTTACACGTGATATA | 0.12 |
| GGTAGCACGTGGTTCT | 0.05 |
| AGTAGCACGTGCGTCG | -0.05 |
| GCAAGCACGTGGTTGT | -0.18 |
| CGCTTCACGTGTAGGG | 0.22 |
| GTCGTCACGTGTGAGT | 0.23 |
| ATGGTCACGTGATTAA | 0.21 |
| GTAGGCACGTGGCTTG | -0.22 |
| TTATGCACGTGTCTAG | -0.03 |
| AGAAACACGTGTCGTG | 0.07 |
| TCCGGCACGTGGCGGT | 0.05 |
| ATAGGCACGTGTTTTG | -0.22 |
| GGTGCCACGTGCTTGG | -0.23 |
| TTCGGCACGTGGAATG | -0.07 |
| CTTAGCACGTGGGGTT | -0.23 |
| TATTACACGTGAGTTG | 0.27 |
| ATCGTCACGTGGGGTT | 0.03 |
| ATTTGCACGTGTGCTG | 0.05 |
| CGTATCACGTGATGTT | 0.06 |
| TATTTCACGTGATATT | 0.14 |
| CTAGGCACGTGTAGGA | 0 |
| ATGATCACGTGATGAG | 0.3 |
| TTGTGCACGTGCCGTG | -0.16 |
| CGGGGCACGTGATTGG | -0.09 |

| Sequence | relative binding free energy [kcal/mol] |
| --- | --- |
| TTTGTCACGTGGAAAC | 0.3 |
| GGGAACACGTGAGTGG | 0.11 |
| GGATGCACGTGGATAT | 0.14 |
| ATTCGCACGTGGGGTA | -0.28 |
| TTGTACACGTGAGAGT | 0.3 |
| AAGGTCACGTGATTTG | 0.2 |
| CTGTGCACGTGTGGAG | -0.08 |
| TCTTTCACGTGGACGT | 0.39 |
| AGCTTCACGTGTGTGG | 0.18 |
| ATGGCCACGTGAGTTA | 0.09 |
| TGGGGCACGTGTGTAC | -0.1 |
| ATGTACACGTGTTCTT | 0.22 |
| TAGGGCACGTGGGCGG | -0.2 |
| GTCTTCACGTGCAGGT | 0.19 |
| GGATCCACGTGGGGGA | -0.05 |
| GAGTTCACGTGCAGGT | 0.47 |
| GTGGGCACGTGAACGG | 0.12 |
| AAAAGCACGTGTTGGA | 0.03 |
| GGCTCCACGTGTGGGG | 0.11 |
| GGCTGCACGTGGAATG | 0.12 |
| CTCGTCACGTGGGAGT | 0.09 |
| ATAAACACGTGTGTGG | 0.01 |
| ATATTCACGTGTATGG | 0.22 |
| CTGTTCACGTGGTGTC | 0.17 |
| GTATGCACGTGTTTAA | -0.15 |

| Sequence | relative binding free energy [kcal/mol] |
| --- | --- |
| TGTTGCACGTGGACAT | -0.11 |
| ACGCGCACGTGTGGTT | -0.06 |
| GGGAACACGTGTAAGG | 0.19 |
| CGAGTCACGTGATGGT | 0.17 |
| GTTTACACGTGATGGT | 0.31 |
| TGGGACACGTGTTTGA | -0.05 |
| TAACTCACGTGGTGGT | 0.1 |
| TTGTACACGTGAGAAG | 0.19 |
| TGTTACACGTGAGGAT | 0.22 |
| TGTGGCACGTGAGTGA | 0.21 |
| ATATGCACGTGAGGGG | 0.18 |
| GCGTGCACGTGTAATG | 0.01 |
| GGTTTCACGTGTCGTG | 0.33 |
| GTACGCACGTGTGTAG | -0.16 |
| TTACGCACGTGGGGGC | -0.31 |
| CTATTCACGTGGAGGT | 0.1 |
| CGTGTCACGTGATAGG | 0.22 |
| GTTTACACGTGGGGCC | 0.08 |
| GAATTCACGTGATGGG | 0.35 |
| TATCGCACGTGGTGTA | -0.4 |
| AGTTGCACGTGGAGCG | 0.05 |
| TAGGACACGTGGAGCG | 0 |
| TGGCGCACGTGAATGT | 0.22 |
| AACGTCACGTGGGGGT | -0.08 |
| TGTTTCACGTGTTGTT | 0.35 |

| Sequence | relative binding free energy [kcal/mol] |
| --- | --- |
| ACGTTCACGTGGTTTT | 0.16 |
| TGGATCACGTGGTGTT | 0.1 |
| AGGTGCACGTGCGGTC | -0.05 |
| ATGCGCACGTGGAGGT | -0.14 |
| GATTTCACGTGCTGAG | 0.53 |
| TGAATCACGTGAATGA | 0.39 |
| CAGGACACGTGGGGAG | -0.16 |
| CAGTGCACGTGGTGAT | -0.11 |
| GTCTACACGTGCGGTT | 0.18 |
| ATGGTCACGTGTGATA | 0.21 |
| TTCTGCACGTGAATTG | 0.16 |
| CGATCCACGTGGGGGT | -0.17 |
| ATGTACACGTGACGTT | 0.07 |
| AATTACACGTGCGGGT | 0.12 |
| AGAGGCACGTGTGGAC | -0.11 |
| TTAGTCACGTGACTGA | 0.22 |
| AATATCACGTGAGGTC | 0.35 |
| CTCGACACGTGTGTGT | 0.01 |
| TTGCTCACGTGGGATG | 0.04 |
| GCGGGCACGTGAGTCG | 0.09 |
| GTGCCCACGTGGGGGA | -0.31 |
| GTTAACACGTGTGTGT | 0.07 |
| TTTTTCACGTGAACAG | 0.34 |
| TTAGTCACGTGGTGCA | -0.09 |
| ATGGACACGTGATTAG | 0.18 |

| Sequence | relative binding free energy [kcal/mol] |
| --- | --- |
| CAGGTCACGTGTATTT | 0.2 |
| AGTTGCACGTGAGTGG | 0.25 |
| AATTTCACGTGCTAGT | 0.13 |
| TGGGTCACGTGCTGGC | 0.04 |
| TATAGCACGTGAGGTC | 0.19 |
| TGGTGCACGTGGAAGA | -0.03 |
| ATTGACACGTGAGGGT | 0.09 |
| AGTATCACGTGTATTG | 0 |
| GGGCACACGTGCTTGG | -0.03 |
| GGGCACACGTGTTGTA | 0.21 |
| CTGTGCACGTGATCGG | 0.03 |
| AGGGGCACGTGGCGGA | -0.32 |
| CTGGGCACGTGCGTGG | -0.33 |
| GTTCTCACGTGGAAGT | 0.2 |
| GGTAGCACGTGGTTAC | -0.02 |
| TTTGTCACGTGGGTAT | 0.05 |
| AGTTACACGTGTGTAT | 0.06 |
| TGCCACACGTGGGGTG | -0.18 |
| ACTTTCACGTGCAGGT | 0.39 |
| GGGGGCACGTGTAATA | -0.1 |
| GGTCGCACGTGGTGGG | -0.05 |
| ATTGTCACGTGGTCGA | -0.05 |
| CAATGCACGTGTGGAT | 0.02 |
| ATTATCACGTGGAGCG | 0.1 |
| GGTGACACGTGATCGG | 0.06 |

| Sequence | relative binding free energy [kcal/mol] |
| --- | --- |
| GACGGCACGTGGGAGA | 0.07 |
| CTTGTCACGTGCGTTG | 0.14 |
| CTCGTCACGTGTGGGG | 0.05 |
| CTCGACACGTGGGTTT | 0.03 |
| GCGTCCACGTGATGGT | 0.42 |
| GATGACACGTGAGATG | 0.33 |
| AGAGGCACGTGCGGGC | -0.2 |
| TGGGGCACGTGTACAG | -0.03 |
| TGAGTCACGTGGTCCG | 0.01 |
| GTAGCCACGTGTGGGA | 0.04 |
| GGTGGCACGTGGGGAT | -0.09 |
| AATTGCACGTGTGTAA | 0.03 |
| GTTGTCACGTGGGAGT | 0.08 |
| TAGCGCACGTGCGAGG | -0.08 |
| GAGTACACGTGCGTGG | 0.12 |
| GGAGGCACGTGACGGG | 0.17 |
| TTAGACACGTGTGTAG | 0.06 |
| AATTACACGTGAGTTT | 0.32 |
| TTTGACACGTGTGATC | 0.12 |
| ATGGGCACGTGAATGG | 0.09 |
| TGCGTCACGTGAGTTG | 0.3 |
